According to the supplement of paper PMC4604168 (melanoma cell lines):
This is one part of the list. Repeats are few or missing, and single values can be far off.

Test system: UACC257
Experiment: cell count relative to DMSO control; melanoma cells; higher = more viable cells
Conditions: library dose: low library concentration; 72 h
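Further: cell number obtained by counting DAPI-stained nuclei in high-throughput microscope images with image analysis software, screen run in 1,536-well plates.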

Row | Compound | cell count [%]
1 | Cc1cn(-c2cc(NC(=O)c3ccc(C)c(Nc4nccc(-c5cccnc5)n4)c3)cc(C(F)(F)F)c2)cn1 [nilotinib] + O=C1NC(=O)/C(=C/c2ccc(-c3ccc(F)cc3O)o2)S1 [AS252424] (first compound 0.2 µM, partner dose 1 µM) | 105
2 | CC(C)C[C@H](NC(=O)[C@H](Cc1ccccc1)NC(=O)c1cnccn1)B(O)O [Bortezomib] + Cn1cc(/C=C2\C(=O)Nc3cccnc32)c2ccccc21 [GW441756] (first compound 0.001 µM, partner dose 0.4 µM) | 65.7
3 | Cc1cc(Nc2cc(N3CCN(C)CC3)nc(/C=C/c3ccccc3)n2)n[nH]1 + COc1ccc(COc2ccc(Cc3cnc(N)nc3N)cc2OC)cc1 [GW2580] (first compound 0.04 µM, partner dose 1 µM) | 99.8
4 | Cc1cn(-c2cc(NC(=O)c3ccc(C)c(Nc4nccc(-c5cccnc5)n4)c3)cc(C(F)(F)F)c2)cn1 [nilotinib] + COc1cc(N2CCC(N3CCN(C)CC3)CC2)ccc1Nc1ncc(Cl)c(Nc2ccccc2S(=O)(=O)C(C)C)n1 [NVP-TAE684] (first compound 0.2 µM, partner dose 0.08 µM) | 52.5
5 | CC(C)C[C@H](NC(=O)[C@H](Cc1ccccc1)NC(=O)c1cnccn1)B(O)O [Bortezomib] + O=C1NC(=O)/C(=C/c2ccc(-c3ccc(F)cc3O)o2)S1 [AS252424] (first compound 0.001 µM, partner dose 1 µM) | 78.1
6 | Cc1cc(Nc2cc(N3CCN(C)CC3)nc(/C=C/c3ccccc3)n2)n[nH]1 + CCCCCCCCCCCC1=C(O)C(=O)C=C(O)C1=O [Embelin] (first compound 0.04 µM, partner dose 1.2 µM) | 79.3
7 | Cn1c(=O)n(-c2ccc(C(C)(C)C#N)cc2)c2c3cc(-c4cnc5ccccc5c4)ccc3ncc21 + Cc1cc(N2CCOCC2)cc2[nH]c(-c3c(NC[C@@H](O)c4cccc(Cl)c4)cc[nH]c3=O)nc12 [BMS536924] (first compound 0.004 µM, partner dose 0.2 µM) | 95.6
8 | Cc1cc(Nc2cc(N3CCN(C)CC3)nc(/C=C/c3ccccc3)n2)n[nH]1 + C=CCn1c(=O)c2cnc(Nc3ccc(N4CCN(C)CC4)cc3)nc2n1-c1cccc(C(C)(C)O)n1 [MK1775] (first compound 0.04 µM, partner dose 0.02 µM) | 75.4
9 | CC(C)C[C@H](NC(=O)[C@H](Cc1ccccc1)NC(=O)c1cnccn1)B(O)O [Bortezomib] + COC(=O)c1sccc1S(=O)(=O)Nc1ccc(Nc2ccccc2)cc1OC [GSK0660] (first compound 0.001 µM, partner dose 1 µM) | 56.9
10 | Cc1cn(-c2cc(NC(=O)c3ccc(C)c(Nc4nccc(-c5cccnc5)n4)c3)cc(C(F)(F)F)c2)cn1 [nilotinib] + O=C(Nc1ccccc1)c1cc([N+](=O)[O-])ccc1Cl [GW9662] (first compound 0.2 µM, partner dose 2 µM) | 70.5
11 | CC(C)C[C@H](NC(=O)[C@H](Cc1ccccc1)NC(=O)c1cnccn1)B(O)O [Bortezomib] + C=CCn1c(=O)c2cnc(Nc3ccc(N4CCN(C)CC4)cc3)nc2n1-c1cccc(C(C)(C)O)n1 [MK1775] (first compound 0.001 µM, partner dose 0.02 µM) | 86.2
12 | Cc1cn(-c2cc(NC(=O)c3ccc(C)c(Nc4nccc(-c5cccnc5)n4)c3)cc(C(F)(F)F)c2)cn1 [nilotinib] + CN(C)S(=O)(=O)c1ccc2c(c1)/C(=C/c1cc3c([nH]1)CCCC3)C(=O)N2 [SU6656] (first compound 0.2 µM, partner dose 0.4 µM) | 93.1
13 | Cc1cc(Nc2cc(N3CCN(C)CC3)nc(/C=C/c3ccccc3)n2)n[nH]1 + CC1(C)NC(=O)N(c2ccc([N+](=O)[O-])c(C(F)(F)F)c2)C1=O [nilutamide] (first compound 0.04 µM, partner dose 1 µM) | 95.4
14 | Cn1c(=O)n(-c2ccc(C(C)(C)C#N)cc2)c2c3cc(-c4cnc5ccccc5c4)ccc3ncc21 + O=C(O)c1ccc(-c2c[nH]c3ncc(-c4ccccc4)cc23)cc1C1CCCC1 [GSK650394] (first compound 0.004 µM, partner dose 0.16 µM) | 87.5
15 | Cc1cn(-c2cc(NC(=O)c3ccc(C)c(Nc4nccc(-c5cccnc5)n4)c3)cc(C(F)(F)F)c2)cn1 [nilotinib] + Cc1ccc(NC(=O)c2cccc(N(C)C)c2)cc1NC(=O)c1ccc(O)cc1 [ZM336372] (first compound 0.2 µM, partner dose 2 µM) | 85
16 | Cc1cc(Nc2cc(N3CCN(C)CC3)nc(/C=C/c3ccccc3)n2)n[nH]1 + O=C(O)C(=O)Nc1sc2c(c1C(=O)O)CCNC2 [TCS401] (first compound 0.04 µM, partner dose 1.66667 µM) | 83.2
17 | CC(C)C[C@H](NC(=O)[C@H](Cc1ccccc1)NC(=O)c1cnccn1)B(O)O [Bortezomib] + COc1cc(Nc2ncc(F)c(Nc3ccc4c(n3)NC(=O)C(C)(C)O4)n2)cc(OC)c1OC [Tamatinib] (first compound 0.001 µM, partner dose 0.4 µM) | 67.2
18 | Cc1cc(Nc2cc(N3CCN(C)CC3)nc(/C=C/c3ccccc3)n2)n[nH]1 + Cc1cc(N2CCOCC2)cc2[nH]c(-c3c(NC[C@@H](O)c4cccc(Cl)c4)cc[nH]c3=O)nc12 [BMS536924] (first compound 0.04 µM, partner dose 0.2 µM) | 79.8
19 | Cc1cn(-c2cc(NC(=O)c3ccc(C)c(Nc4nccc(-c5cccnc5)n4)c3)cc(C(F)(F)F)c2)cn1 [nilotinib] + COc1cc2ncnc(Nc3ccc(Oc4ccccc4)cc3)c2cc1OC [SrcI1] (first compound 0.2 µM, partner dose 2 µM) | 95.1
20 | COc1ccc(C2=N[C@@H](c3ccc(Cl)cc3)[C@@H](c3ccc(Cl)cc3)N2C(=O)N2CCNC(=O)C2)c(OC(C)C)c1 [Nutlin-3] + CN(NC(=O)CC(=O)NN(C)C(=S)c1ccccc1)C(=S)c1ccccc1 [STA4783] (first compound 0.1 µM, partner dose 0.006 µM) | 73.9
21 | Cc1cc(Nc2cc(N3CCN(C)CC3)nc(/C=C/c3ccccc3)n2)n[nH]1 + COc1ccc(-c2ccc3c(N4CCOCC4)nc(N4C[C@@H](C)O[C@@H](C)C4)nc3n2)cc1CO [KU0063794] (first compound 0.04 µM, partner dose 0.02 µM) | 117
22 | Cn1c(=O)n(-c2ccc(C(C)(C)C#N)cc2)c2c3cc(-c4cnc5ccccc5c4)ccc3ncc21 + C[C@@H]1CCN(C(=O)CC#N)C[C@@H]1N(C)c1ncnc2[nH]ccc12 [CP690550] (first compound 0.004 µM, partner dose 1 µM) | 91.6
23 | Cc1cn(-c2cc(NC(=O)c3ccc(C)c(Nc4nccc(-c5cccnc5)n4)c3)cc(C(F)(F)F)c2)cn1 [nilotinib] + C[C@@H]1CCN(C(=O)CC#N)C[C@@H]1N(C)c1ncnc2[nH]ccc12 [CP690550] (first compound 0.2 µM, partner dose 1 µM) | 96.3
24 | Cn1c(=O)n(-c2ccc(C(C)(C)C#N)cc2)c2c3cc(-c4cnc5ccccc5c4)ccc3ncc21 + NC(=O)Nc1cc(-c2cccc(F)c2)sc1C(=O)N[C@H]1CCCNC1 [AZD7762] (first compound 0.004 µM, partner dose 0.02 µM) | 121
